For 20 cell lines, AUC and IC50 results are on record in the supplement of paper PMC4967469.

By IC50 is meant the dose at which the fit gives 50% viability; fits outside the tested doses are given as limits. AUC is the area under the same curve over the 256-fold range up to the top dose, as a fraction; the more sensitive the line, the further below 1. Where the top dose is marked as inferred, it was calculated from the reported fits.

Compound in one test: O=C1NC(=O)c2c1c(-c1ccccc1Cl)cc1[nH]c3ccc(O)cc3c21 [Wee1 inhibitor 681640]
Put plainly: Viability of human cancer cell lines after 72 h of drug (GDSC screen). As to conditions: top dose 2 µM; top dose inferred. As for the experimental part: (§1)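 Human cancer cell lines in 384-well plates, medium with 10% serum, drug for 72 h over a 256-fold dose range (nine 2-fold or five 4-fold steps up to the top dose). Adherent lines were fixed and stained with the nucleic acid dye Syto60, suspension lines read with resazurin; signal relative to control wells, capped at 0 and 100%. One two-parameter sigmoid per drug and line, fitted in a mixed model over all curves with the slope shared within a line.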
“GRANTA-519 (B-cell lymphoma, suspension)”: the AUC amounted to 0.968 and the concentration for half-maximal inhibition (IC50) is more than 2000 nM.
For GT3TKB (stomach, adherent), the AUC stood at 0.944 and the 50% inhibitory concentration (IC50) is more than 2000 nM.
For the cell line H9 (lymphoid neoplasm, suspension), the AUC was found to be 0.992 and the IC50 was more than 2000 nM.
For HCC2157 (breast, suspension), the AUC was found to be 0.987 and the concentration for half-maximal inhibition (IC50) is more than 2000 nM.
Regarding HCC2218 (breast, suspension), the AUC stood at 0.977 and the IC50 was more than 2000 nM.

Compound in a further test: CC(C)=CC[C@@H](O)C1=CC(=O)c2c(O)ccc(O)c2C1=O [Shikonin]
Described as above. As to conditions: top dose 16 µM; top dose inferred. As to the method:
as §1
As for ES6 (Ewing sarcoma, adherent), the AUC amounted to 0.679 and the half-maximal inhibitory concentration (IC50) was determined as 3580 nM.
Turning to ES7 (Ewing sarcoma, adherent), the AUC was determined as 0.397 and the concentration for half-maximal inhibition (IC50) worked out at 517 nM.
Turning to ES-2 (ovary, adherent), the AUC was found to be 0.597 and the IC50 amounted to 1780 nM.
Consider ETK-1 (biliary tract, adherent), for which the AUC stood at 0.569 and the 50% inhibitory concentration (IC50) was found to be 1580 nM.
Consider EVSA-T (breast, adherent), for which the AUC stood at 0.352 and the IC50 was 415 nM.
In the case of EW-1 (Ewing sarcoma, semi-adherent), the AUC worked out at 0.508 and the half-inhibitory concentration (IC50) was found to be 1050 nM.
The like results for EW-11 (Ewing sarcoma, adherent) were, in that order, 0.426 and 592 nM.
On to EW-16 (Ewing sarcoma, adherent), for which the AUC was found to be 0.314 and the IC50 was 294 nM.
Turning to EW-24 (Ewing sarcoma, semi-adherent), the AUC was determined as 0.797 and the IC50 is 6500 nM.
On the same counts, the results for “EoL-1-cell (haematopoietic neoplasm, suspension)” are 0.315 and 325 nM.
With Farage (B-cell lymphoma, suspension), the AUC is 0.187 and the IC50 was 148 nM.
For the cell line GB-1 (glioma, adherent), the AUC is 0.439 and the half-inhibitory concentration (IC50) came out at 660 nM.
In the case of GI-1 (glioma, adherent), the AUC stood at 0.407 and the half-maximal inhibitory concentration (IC50) was found to be 562 nM.
Regarding GI-ME-N (neuroblastoma, adherent), the AUC was 0.42 and the half-maximal inhibitory concentration (IC50) was found to be 557 nM.
Regarding “GR-ST (lymphoblastic leukaemia, suspension)”, the AUC was found to be 0.273 and the 50% inhibitory concentration (IC50) was found to be 195 nM.
On to “GRANTA-519 (B-cell lymphoma, suspension)”, for which the AUC was determined as 0.423 and the IC50 is 632 nM.
For GT3TKB (stomach, adherent), the AUC was determined as 0.354 and the IC50 came out at 416 nM.
On the same counts, the results for H9 (lymphoid neoplasm, suspension) are 0.304 and 316 nM.
Regarding HCC2157 (breast, suspension), the AUC amounted to 0.348 and the 50% inhibitory concentration (IC50) was 370 nM.
The like results for HCC2218 (breast, suspension) were, in that order, 0.394 and 474 nM.

Compound in a further test: CCNc1cc(NC2CCC(O)CC2)nc(Nc2ccc3c(ccn3Cc3ccccc3)c2)n1 [CGP-082996 (CINK4)]
The description is as above. The note with it: top dose 5.12 µM; top dose inferred. As for the experimental part:
as §1
For the cell line ES6 (Ewing sarcoma, adherent), the AUC amounted to 0.864 and the IC50 is more than 5120 nM.
For ES7 (Ewing sarcoma, adherent), the AUC turned out to be 0.938 and the IC50 is more than 5120 nM.
ES-2 (ovary, adherent): the AUC is 0.988 and the IC50 is more than 5120 nM.
In the case of ETK-1 (biliary tract, adherent), the AUC was found to be 0.543 and the IC50 was 426 nM.
With EVSA-T (breast, adherent), the AUC is 0.916 and the IC50 is more than 5120 nM.
Regarding EW-1 (Ewing sarcoma, semi-adherent), the AUC was 0.911 and the IC50 was more than 5120 nM.
The like results for EW-11 (Ewing sarcoma, adherent) were, in that order, 0.956 and more than 5120 nM.
As for EW-16 (Ewing sarcoma, adherent), the AUC is 0.885 and the IC50 is more than 5120 nM.
On to EW-24 (Ewing sarcoma, semi-adherent), for which the AUC came to 0.976 and the IC50 was more than 5120 nM.
Turning to “EoL-1-cell (haematopoietic neoplasm, suspension)”, the AUC amounted to 0.887 and the IC50 amounted to 4560 nM.
Take Farage (B-cell lymphoma, suspension): the AUC worked out at 0.988 and the IC50 is more than 5120 nM.
Turning to GB-1 (glioma, adherent), the AUC came to 0.851 and the IC50 is 5030 nM.
Turning to GI-1 (glioma, adherent), the AUC came out at 0.781 and the half-inhibitory concentration (IC50) worked out at 2030 nM.
On the same counts, the results for GI-ME-N (neuroblastoma, adherent) are 0.93 and more than 5120 nM.
The like results for “GR-ST (lymphoblastic leukaemia, suspension)” were, in that order, 0.868 and more than 5120 nM.
Consider “GRANTA-519 (B-cell lymphoma, suspension)”, for which the AUC is 0.989 and the IC50 is more than 5120 nM.
Take GT3TKB (stomach, adherent): the AUC was found to be 0.864 and the IC50 stood at 3620 nM.
In the case of H9 (lymphoid neoplasm, suspension), the AUC worked out at 0.953 and the half-maximal inhibitory concentration (IC50) was more than 5120 nM.
Turning to HCC2157 (breast, suspension), the AUC is 0.972 and the IC50 is more than 5120 nM.
The like results for HCC2218 (breast, suspension) were, in that order, 0.943 and more than 5120 nM.

Compound in another test: NC(=O)c1ccc(N(C(N)=O)c2c(F)cccc2F)nc1-c1ccc(F)cc1F [VX-702]
The test is described as above. As to conditions: top dose 2 µM; top dose inferred. As to the method: as §1
As for ES6 (Ewing sarcoma, adherent), the AUC is 0.982 and the concentration for half-maximal inhibition (IC50) was more than 2000 nM.
Regarding ES7 (Ewing sarcoma, adherent), the AUC turned out to be 0.975 and the half-inhibitory concentration (IC50) was more than 2000 nM.
As for ES-2 (ovary, adherent), the AUC was found to be 0.99 and the half-inhibitory concentration (IC50) was more than 2000 nM.
As to ETK-1 (biliary tract, adherent), the AUC came out at 0.957 and the IC50 is more than 2000 nM.
Turning to EVSA-T (breast, adherent), the AUC stood at 0.991 and the 50% inhibitory concentration (IC50) was more than 2000 nM.
EW-1 (Ewing sarcoma, semi-adherent): the AUC was 0.989 and the 50% inhibitory concentration (IC50) was more than 2000 nM.
For the cell line EW-11 (Ewing sarcoma, adherent), the AUC is 0.935 and the half-inhibitory concentration (IC50) was more than 2000 nM.
As for EW-16 (Ewing sarcoma, adherent), the AUC came out at 0.921 and the IC50 was more than 2000 nM.
In the case of EW-24 (Ewing sarcoma, semi-adherent), the AUC was determined as 0.99 and the concentration for half-maximal inhibition (IC50) was more than 2000 nM.
On the same counts, the results for “EoL-1-cell (haematopoietic neoplasm, suspension)” are 0.924 and more than 2000 nM.
Regarding Farage (B-cell lymphoma, suspension), the AUC came to 0.949 and the IC50 was more than 2000 nM.
With GB-1 (glioma, adherent), the AUC was 0.98 and the IC50 was more than 2000 nM.
Consider GI-1 (glioma, adherent), for which the AUC came out at 0.964 and the IC50 is more than 2000 nM.
In the case of GI-ME-N (neuroblastoma, adherent), the AUC turned out to be 0.977 and the IC50 is more than 2000 nM.
Consider “GR-ST (lymphoblastic leukaemia, suspension)”, for which the AUC came to 0.97 and the IC50 was more than 2000 nM.
In the case of “GRANTA-519 (B-cell lymphoma, suspension)”, the AUC is 0.991 and the IC50 is more than 2000 nM.
On the same counts, the results for GT3TKB (stomach, adherent) are 0.985 and more than 2000 nM.
H9 (lymphoid neoplasm, suspension): the AUC is 0.992 and the IC50 was more than 2000 nM.
Take HCC2157 (breast, suspension): the AUC was found to be 0.978 and the half-inhibitory concentration (IC50) is more than 2000 nM.
In the case of HCC2218 (breast, suspension), the AUC was 0.958 and the IC50 is more than 2000 nM.

What is called IC50 is the concentration that gives 50% inhibition.
